Experimental data reported in patent US12459987B2, “Monoclonal antibodies for prevention and treatment of herpes simplex viral infections” (priority 2019, dated 2025).

Molecular target: T1, FcγRIV (Mus musculus, UniProt A0A0B4J1G0)
T1 construct: purchased Promega
T1 sequence (A0A0B4J1G0 21-249): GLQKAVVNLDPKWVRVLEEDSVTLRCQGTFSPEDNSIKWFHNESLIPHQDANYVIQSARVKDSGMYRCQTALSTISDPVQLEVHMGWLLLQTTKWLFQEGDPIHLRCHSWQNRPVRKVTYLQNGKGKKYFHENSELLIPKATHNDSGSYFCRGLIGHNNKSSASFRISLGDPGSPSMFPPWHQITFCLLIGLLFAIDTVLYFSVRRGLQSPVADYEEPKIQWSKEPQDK
Test: Promega FcγRIV ADCC Reporter Bioassay (FcγRIV activation)
Assay type: cell-based, murine
Details: IgG1 and IgG2c isotypes of individual mAbs; 1 mg/mL
Protocol: FIG. 4: FcγRIV activation by the IgG1 and IgG2c isotypes of individual mAbs. FcγRIV activation was assayed using the Promega FcγRIV ADCC Reporter Bioassay at a concentration of 1 mg/mL. Statistical analysis is by ANOVA, **P<0.01, ****P<0.0001.
Based on the obtained V(D)J sequences from each B-cell culture, paired heavy and light chains were re-expressed (as recombinant mouse IgG1 and IgG2c antibodies) in Expi293F cells (Kuraoka et al. Immunity 2016; DiLillo et al. Nature Medicine 2013). […] As expected, all recombinant antibodies reacted specifically with HSV-2 G lysates (FIG. 3). […] Binding of recombinant antibodies to HSV-2 G lysates was tested by ELISA. […]
Protection by serum antibodies elicited by ΔgD-2 vaccinations depends on FcγRIV activation. […] The IgG1 and IgG2c isotype of BMPC-23 were analyzed in an in vitro FcγRIV activation assay (FIG. 4), and in vivo protection assay (see description below, FIGS. 6A to 6C).
Both IgG1 and IgG2c forms of 22D10, 33B8, and BMPC-23 antibodies (≥4 mg each) were assessed for reproducibility of in vivo protection assay, and any dependency on Ig isotype for protection. […] To test roles of Ig isotypes on ability to provide protection, IgG1 and IgG2c isotypes of these three antibodies were generated and assessed for ability to activate mFcγRIV signaling (as a measurement for ADCC), and for in vivo protection assay.

B1: BMPC-23 IgG2c: recombinant mouse IgG2c isotype of BMPC-23 (antibody, V domains shown)
VH: QVQLQQSGPELVKPGASVKLSCKASGYSFTTYDINWVKERPGQGLEWIGWIYPREGSTNYNEKFRGKATLTADTSSSTAYMELHSLTSEDSAVYFCATYGSSRYYTMDYWGQGTSVTVSSA
VL: DIVLTQSPTSLAVSLGQRATISCRASESVDNFGISFMNWFQQKPGQPPKLLIYAASNLGSGVPARFSGSGSGTDFSLNIHPMEDDDTAMYFCQQSKEVPLTFGAGTKLELKR
In the case of B1, the FcγRIV activation is reported as “highest level of FcγR activation”.
